# PubChem BioAssay AID540267 (National Center for Advancing Translational Sciences (NCATS), 2011)
# Screen size: about 340,000 compounds; about 530 (0.16%) were called active. Inconclusive results, whose numbers are uncertain, are shown with a selection of clear calls. No stated cut-off is given here; in the data, active means activity change below about -80%; inconclusive means between about -30% and that limit; inactive means weaker than that.
# Assay: Small Molecules that selectively kill Giardia lamblia: qHTS;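 further: parasites exposed to compound for two days anaerobically before the ATP read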
# Conditions: Giardia lamblia trophozoite viability; at 7.66 µM; active compounds read low
# Summary of the method: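 Anaerobic 48 hrs incubation at 37 deg C of 100 trophozoites/well with test compounds; ATPLite 1-Step luminescence, 15-30 min RT, reports cellular ATP as viability.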
# On the % scale 0 is the no-effect control and ±100 the full control effect.
row,Compound,activity change
1,Brc1ccc(N=Nc2ccc3ccccc3n2)cc1,active: -80.7%
2,CCc1ccc(S(=O)(=O)c2nnn3c2nc(NCCNC(C)=O)c2ccccc23)cc1,inactive: -6.72%
3,COCCCNC(=O)CSc1ccsc1[N+](=O)[O-],inconclusive: -68.2% [inhibitor]
4,Cc1ccc(NC(=O)C(C)Sc2nc3nc(C)cc(C)n3n2)cc1 (configuration not stated),inconclusive: -33% [inhibitor]
5,COc1ccc(CNc2ccc([N+](=O)[O-])cn2)cc1,inconclusive: -45.8% [inhibitor]
6,Cc1ccc2c(c1)S/C(=C/c1ccc[n+](CCO)c1)N2C,inactive: 13.9%
7,COc1ccc(CN2CCn3nc(C(=O)NC4CC4)cc3C2=O)cc1,inconclusive: -40.3% [inhibitor]
8,CC(C)CC(=O)Nc1ccc(C(=O)NN2C(=O)c3ccccc3C2=O)cc1,inactive: -11.7%
9,CC(C)Cn1c(N)c(C(=O)COC(=O)c2ccc(O)cc2)c(=O)n(C)c1=O,inactive: -23.8%
10,CCCCCC1(C)NC(=S)N(c2ccccc2)N1 (configuration not stated),inactive: 0.213%
11,Cc1ccc(NC(=O)/C(=C\C=C\c2ccccc2)NC(=O)c2ccccc2)cc1,inconclusive: -34.5% [inhibitor]
12,Cc1c(N2CCCC2)cc2c(c1NC(=O)c1ccccc1Cl)C(C)(C)CC2(C)C,inconclusive: -38% [inhibitor]
13,COc1ccc2oc(C(=O)OC(C)C(=O)NCc3ccccc3)c(C)c2c1 (configuration not stated),inconclusive: -53% [inhibitor]
14,CC(O)[C@H]1CC[C@H]2[C@@H]3CC[C@H]4C[C@H](O)CC[C@]4(C)[C@H]3[C@H](O)C[C@]12C (some centres not stated),inconclusive: -36.4% [inhibitor]
15,O=C(N/N=C/c1cccnc1)c1cc(-c2ccccc2OCc2ccccc2)n[nH]1,inactive: 28.4%
16,O=C(Cn1nc(Cc2cccnc2)c2ccccc2c1=O)Nc1ccc2c(c1)OCO2,inactive: -14.3%
17,CCCCOc1ccc(Nc2cc(Cl)ccc2C(=O)O)cn1,inactive: 3.3%
18,O=C(NCCc1ccccc1)c1ccc2c(c1)S(=O)(=O)c1cc(Cl)ccc1C2=O,inactive: 6.18%
19,Cc1ccc(S(=O)(=O)N2[C@@H](c3ccc(F)cc3)C(C(=O)O)=CC[C@H]2c2cccs2)cc1,inconclusive: -46.1% [inhibitor]
20,CN(C)NC(=S)Nc1ccc(Cl)cc1,inactive: -5.05%
21,CN(C)CCN(Cc1ccco1)C(=O)c1oc2ccccc2c1NC(=O)COc1ccccc1,inactive: 24.9%
22,Cc1oc(-c2ccc(Cl)cc2)nc1CS(=O)CC(=O)NCCN1CCCCCC1 (configuration not stated),inactive: 4.41%
23,Cc1ccccc1N=CC1=C(O)c2ccccc2C1=O,inconclusive: -59.9% [inhibitor]
24,COc1cccc(/C=C/C(=O)Nc2ccc3c(c2)OCCO3)c1OC,inconclusive: -63.7% [inhibitor]
25,Cc1ccc(C(=O)/C=C/c2ccc(Br)cc2)o1,inactive: 16.2%
26,Cc1nc(OCC(=O)c2ccc(Cl)cc2)c(C#N)c2c1COC(C)(C)C2,inactive: -0.802%

row,Compound,activity change
1,COc1cc(OC)c(NC(=O)c2sc3ncn(CC(=O)N4CCOCC4)c(=O)c3c2C)cc1Cl,inconclusive: -40.2% [inhibitor]
2,COc1ccc(S(N)(=O)=O)cc1C(=O)OCC(=O)N1c2ccccc2NC(=O)C1(C)C,inactive: 8.62%
3,O=C(c1ccc([N+](=O)[O-])cc1[N+](=O)[O-])N1CCc2ccccc21,inconclusive: -43.3% [inhibitor]
4,CC(C)(C)n1nnnc1C(c1cc2cc3c(cc2[nH]c1=O)OCCO3)N1CCSCC1 (configuration not stated),inactive: 4.03%
5,Cc1cc(NC(=O)CCOc2ccc(F)cc2)no1,inconclusive: -44.6% [inhibitor]
6,O=C1ON=C(c2ccccc2)/C1=C/c1ccco1,inactive: 21.7%
7,CC(=O)C1=C(O)C(=O)N(c2cccc(C(=O)O)c2)C1c1ccccc1F (configuration not stated),inconclusive: -32.9% [inhibitor]
8,COc1ccc(-c2csc3ncnc(Sc4nnnn4C)c23)cc1,inconclusive: -39% [inhibitor]
9,O=C1c2ccccc2C(=O)c2c1ccc1c(=O)n(C3CCCCC3)[nH]c21,inconclusive: -50.7% [inhibitor]
10,CCOc1cc(/C=N/NC(=O)C(O)(c2ccccc2)c2ccccc2)ccc1OC(=O)c1ccco1,inconclusive: -37.3% [inhibitor]
11,COc1ccc(CCN(Cc2cccs2)S(=O)(=O)c2ccc(S(=O)(=O)N3CCCCCC3)cc2)cc1OC,inactive: -0.258%
12,Clc1ccc(CN2CCC(Cc3ccccc3)CC2)cc1,inactive: -1.48%
13,Cc1cccc(C)c1NC(=O)NN(C(=O)c1ccccc1)C(C)(C)C,inactive: -15.2%
14,CCN(C(=O)c1cnc2scc(C)n2c1=O)c1ccccc1C,inconclusive: -39.6% [inhibitor]
15,Cc1ccc(/C=C/C(=O)c2nc3ccccc3[nH]2)cc1,inconclusive: -36.4% [inhibitor]
16,CN(C)c1ccc(C2Nc3cccc4cccc(c34)N2)cc1,inconclusive: -57.1% [inhibitor]
17,CNCC(=O)Nc1ccc(OC(F)(F)F)cc1,inconclusive: -34.5% [inhibitor]
18,O=C(CCCc1cccs1)Nc1nc2c(s1)CCCC2,inactive: -21.1%
19,COc1ccc2c(c1)C1OCCC1C(c1ccco1)N2 (configuration not stated),inconclusive: -66.3% [inhibitor]
20,O=C1/C(=C/c2cccnc2)CCC/C1=C\c1cccnc1,inconclusive: -33.7% [inhibitor]
21,CN(C)c1ccc(N=Nc2ccccc2C(=O)OCC(=O)NC2CCCC2)cc1,inconclusive: -39.9% [inhibitor]
22,Cc1ccc(SCCNC(=O)c2ccccc2F)cc1,inconclusive: -45.5% [inhibitor]
23,O=C(CSc1ccc(C(F)(F)F)cn1)Nc1ccccc1,inactive: 19.6%
24,Cc1ccccc1CNC(=O)CCC(=O)N1Cc2ccccc2Oc2ncccc21,inconclusive: -34.6% [inhibitor]
25,O=C(c1cc2ccccc2o1)N1CCN(C/C=C/c2ccccc2)CC1,inconclusive: -42.3% [inhibitor]
26,CCCCCC1(C(=O)OCC)CC(CSC(=N)N)OC1=O (configuration not stated),inconclusive: -31.2% [inhibitor]
